About 50,000 (12%) of roughly 420,000 compounds were called active. Not shown: some 26% with an inconclusive outcome. Calls come from the whole dose curve; as a rule, active = well fitted inhibition curve with a large enough effect; inconclusive = small, poorly fitted or top-dose-only effect; inactive = flat fitted curve, though single readings scatter. The entries are a selection whose mix differs from that of the whole data set. More than one record can exist for a structure, and the calls need not agree.
assay: qHTS for Inhibitors of human tyrosyl-DNA phosphodiesterase 1 (TDP1): qHTS in cells in presence of CPT; settings: chicken DT40 Tdp1-/-;hTDP1 cells + 20 nM CPT, ATP luminescence, 48 h; series mostly up to 46.2 µM; activity change, negative = growth inhibition: at the top concentration; note: nearly all actives have a fitted effect of over 55% in size
Excerpt: Human tyrosyl-DNA phosphodiesterase 1 (TDP1) is a novel repair gene, and we propose to use it as a new target for anticancer drug development. TDP1 is not an essential protein, but under treatment with topoisomerase I poison (camptothecin: CPT), TDP1 works as a critical factor for cell survival. To directly identify novel TDP1 inhibitors active in a cellular environment, we have knocked-out the Tdp1 gene in chicken DT40 cells (Tdp1-/-) and generated a complemented counterpart cells that contains a stable transfection of the human TDP1 gene (Tdp1-/-;hTDP1 cells). For the primary screen, Tdp1-/-;hTDP1 cells will be exposed to small molecules in the presence or absence of CPT, and their growth kinetics will be evaluated after 48 hours by measuring ATP activity. […] The hit compounds will then be evaluated in the presence or absence of CPT using Tdp1-/- cells. […] In tertiary assays, biochemical gel-based assays will be used to assess whether the hit compounds specifically target TDP1. To this end, we have screened this cell line against the MLSMR in two primary screens. In one screen we add CPT and in the other we screen in the absence of CPT; this AID represents the screen where CPT was present. NIH Chemical Genomics Center [NCGC] NIH Molecular Libraries Probe Centers Network [MLPCN] MLPCN Grant: MH095538 Assay Submitter (PI): Yves Pommier, NCI
DT40-hTDP1 cells with 20 nM Camptothecin (add 20 microL of 1 mM CPT stock in 1 L of cell culture medium) were dispensed at 400 cells/5microL/well in tissue culture treated 1536-well white wall/solid bottom assay plates (Greiner Bio-One North America, NC, U.S.A.) using a Multidrop Combi 8 channel dispenser (Thermo Fisher, Waltham, MA, USA). 23 nL compounds and controls were transferred using the pin tool (Kalypsys, San Diego, CA, USA) to the assay plates. The assay plates were then incubated at 37 masculineC for a minimum 48 hr. Three microL of Cell Titer Glo solution was added to the plates and incubated at RT in dark for 30 min. Luminescence was read using ViewLux (Perkin Elmer) with 1 sec exposure slow speed, high gain and 2x binning.
% is set by controls: 0 for no effect and ±100 for the full control effect; potency is the fitted concentration of half-maximal effect.

| Compound | activity change, negative = growth inhibition | Potency |
| --- | --- | --- |
| Cc1c(NC(=O)c2cc(-c3ccc(Cl)c(Cl)c3)on2)c(=O)n(-c2ccccc2)n1C | inactive: -24.2% |  |
| Cc1cc2c(cc1S(=O)(=O)NCc1ccccc1Cl)OCCN2C | inactive: -13.7% |  |
| COc1ccc(Cl)cc1C(=O)NCc1ccc2c(c1)OCO2 | inactive: 30.8% |  |
| c1csc(CNc2ncnc3nc[nH]c23)c1 |  | inactive |
| CC(=O)C[C@@H](O)CC(=O)[C@@H]1OC(=O)[C@@H](C)CCCCc2ccccc21 | inactive: 1.86% |  |
| COC(=O)C(C)Oc1ccc(-c2nccc(-c3cccs3)n2)cc1 (stereo unspecified) | inactive: 31.8% |  |
| CCc1ccccc1N(C)C(=O)c1cn(CC(C)C)c(=O)c2cc(OC)c(OC)cc12 |  | active: 10.3 µM |
| CCCOc1ccc(/C=C/c2[nH]c(=O)[nH]c(=O)c2[N+](=O)[O-])cc1OCC | inactive: 27% |  |
| CC(=O)N1CCc2c(sc3c2c(=O)n(-c2ccccc2)c(=O)n3CC(=O)Nc2ccccc2)C1 | inactive: 31.1% |  |
| CC1=C(C(=O)Nc2ccccc2)C(c2ccccn2)n2nc(SCc3ccccc3)nc2N1 (stereo unspecified) |  | active: 5.17 µM |
| O=C(N/N=C\c1ccccn1)c1cccc(C(=O)N/N=C\c2ccccn2)n1 | inactive: -5.04% |  |
| CS(=O)(=O)Nc1nc2n(n1)C(c1ccc(F)cc1)CC(c1ccccc1)N2 (stereo unspecified) | inactive: 10.1% |  |
| C[C@H](CO)N1C[C@H](C)[C@@H](CN(C)Cc2ccc3c(c2)OCCO3)OCc2cnnn2CCCC1=O | inactive: 5.63% |  |
| Cc1ccc(C(C)C)cc2c(C)ccc1-2 |  | inactive |
| O=C1[C@H](Cc2ccccc2)NC/C=C\C[C@@H](c2ccc(Cl)cc2)N1Cc1ccccc1 |  | active: 12.6 µM |
| O=C(NCc1ccc(F)cc1)c1cc(C2CCCN(C(=O)CCCc3ccccc3)C2)on1 (stereo unspecified) |  | active: 23.1 µM |
| Cc1ccc(NC(=S)NNC(=S)Nc2ccc(C)cc2)cc1 |  | active: 6.51 µM |
| Cc1ccc(C)c(N(C(=O)c2snc(C(N)=O)c2N)C(C(=O)NCC2CCCO2)c2cccs2)c1 (stereo unspecified) |  | active: 7.31 µM |
| CCCCn1nnnc1C(c1cc2ccccc2o1)N1CCN(CC(=O)NC(C)C)CC1 (stereo unspecified) | inactive: -17.6% |  |
| CCCCc1ccc(NC(=O)C(=O)NCCN2CCN(Cc3ccc([N+](=O)[O-])cc3)CC2)cc1 |  | active: 3.26 µM |
| O=c1oc2ccccc2cc1-c1nc2c(s1)CCc1ccccc1-2 | inactive: -8.82% |  |

| Compound | activity change, negative = growth inhibition | Potency |
| --- | --- | --- |
| CCC(CC)C(=O)N(C)c1c(C)nc2c(OCc3ccccc3C)cccn12 |  | active: 6.51 µM |
| Cc1cccc(NC2=C(NCCO)C(=O)c3ccccc3C2=O)c1 |  | active: 16.4 µM |
| CS(=O)(=O)Nc1ccc([N+](=O)[O-])cc1Oc1ccccc1 |  | inactive |
| COc1cc(C)nc(-n2nc(C)cc2OC)n1 |  | inactive |
| CC1=C(C(=O)NCc2ccc(Cl)cc2)C2(CCC(C)CC2)OC1=O (stereo unspecified) | inactive: -28.5% |  |
| CCC(=O)/C=C1\Sc2ccccc2N1CC | inactive: -24.6% |  |
| CCN(C(=O)CSc1nnc(-c2ccncc2)n1-c1ccccc1)C1CCS(=O)(=O)C1 (stereo unspecified) | inactive: 39.1% |  |
| Cc1cccc(NC(=O)CSc2nc(C)c(Cc3ccccc3)c(=O)[nH]2)c1 | inactive: -17.7% |  |
| Cc1ccc(CNC(=O)CCC(=O)N2CC(C)Sc3ccccc32)cc1 (stereo unspecified) | inactive: -27.6% |  |
| CC[C@]12CCCN3CCc4c(n(c5ccccc45)C(=O)C1)[C@@H]32 | inactive: 5.62% |  |
| Cc1cc(C)c(/C=C/c2onc(C)c2S(=O)(=O)N2CCC(C(=O)N3CCN(c4ccccc4)CC3)CC2)c(C)c1 |  | active: 16.4 µM |
| COc1cc(OC)c(C2NC(=O)CCC2[N+](=O)[O-])cc1OC (stereo unspecified) | inactive: 12.3% |  |
| O=C1CN(C(=O)N[C@@H](Cc2ccccc2)C(=O)N[C@H](C(=O)O)c2ccccc2)c2ccccc2N1 | inactive: -19.7% |  |
| Cc1cccc(NC(=O)CCN2C(=O)C3C4C=CC(C4)C3C2=O)n1 (stereo unspecified) |  | active: 16.4 µM |
| Cc1ccc(C)c(-c2ccc(=O)n(Cc3c(F)cccc3Cl)n2)c1 | inactive: -120% |  |
| CCSc1ncc(Cl)c(C(=O)Nc2sc3c(c2C(=O)NCCCOC)CCCC3)n1 | inactive: -4.94% |  |
| COC(=O)C1(C)NC(c2ccco2)C2C(=O)N(c3ccc(F)cc3)C(=O)C21 (stereo unspecified) | inactive: 30.2% |  |
| COC(=O)CCC(C)C1CCC2C3CC[C@H]4CC(O)CC[C@@]4(C)C3CC(O)[C@]12C (stereo partly specified) | inactive: -31.6% |  |
| CS(=O)(=O)N1CCc2cc(C(=O)Nc3ccc(C(F)(F)F)cc3)ccc21 |  | active: 9.2 µM |
| CCOc1ccc(-n2c(SCC(=O)NCc3ccco3)nc3c([nH]c4ccccc43)c2=O)cc1 | inactive: -8.43% |  |
| O=P(C(=S)Nc1ccccc1Cl)(c1ccccc1)c1ccccc1 |  | active: 9.2 µM |

| Compound | activity change, negative = growth inhibition | Potency |
| --- | --- | --- |
| CC1CCC(NC(=O)N(CCCl)N=O)CC1 (stereo unspecified) | inactive: 1.14% |  |
| CCOC(=O)c1c(OCCO)nn(-c2ccc(Cl)cc2)c1N | inactive: 30.7% |  |
| CCOC(=O)CNc1nc(C#N)nc(N2CCOCC2)n1 | inactive: -24.5% |  |
| COc1cc(O)c(C(C)=O)c(OC)c1 | inactive: -16.4% |  |
| O=C(NC1CCCCC1)[C@@H]1CC=C[C@@H]2CCN(C3CCCCC3)C(=O)[C@@H]21 | inactive: -20.9% |  |
| Cn1cc(C(=O)OCC2CCN(CCNS(C)(=O)=O)CC2)c2ccccc21 | inactive: -2.72% |  |
| CCN(CC)S(=O)(=O)c1ccc2c(c1)C(=NO)c1cc(S(=O)(=O)N(CC)CC)ccc1-2 |  | active: 2.31 µM |
| O=C(CSc1cccc[n+]1[O-])c1ccccc1Br |  | active: 3.66 µM |
| Cn1ccnc1SCCNC(=O)CCc1nnc(CCc2ccccc2)o1 | inactive: 34.2% |  |
| CCCC(=O)Nc1ncnc2c1ncn2[C@@H]1O[C@@H]2COP(=O)(O)O[C@H]2[C@H]1OC(=O)CCC |  | inactive |
| CCOC(=O)C1CCCN(CC(=O)Nc2c(C(=O)OC)[nH]c3ccc(Br)cc23)C1 (stereo unspecified) |  | active: 16.4 µM |
| COc1cccc(CN(C)C(=O)c2cc(S(=O)(=O)N3CCN(c4ccccc4)CC3)ccc2Cl)c1 |  | active: 23.1 µM |
| COc1ccccc1C(=O)Nc1nnc(S(=O)(=O)N2CCCCC2)s1 | inactive: -27.3% |  |
| CCn1cc(C(=O)N2CCN(c3ccccc3OC)CC2)c2cc(OC)c(OC)cc2c1=O | inactive: -24.7% |  |
| CC1=C(\C=C/C(C)=C/C=C\C(C)=C\C(=O)O)C(C)(C)CCC1 |  | active: 14.6 µM |
| CC(=O)N1CCc2ccc(S(=O)(=O)N3CCc4ccccc43)cc21 |  | active: 20.6 µM |
| Nc1ccc(S(=O)(=O)c2ccc(N)cc2)cc1 |  | inactive |
| CCOC(=O)C(CCc1ccccc1)NC(C)C(=O)N1C(C(=O)O)CC2CCCC21 (stereo unspecified) | inactive: -6.66% |  |
| CN(Cc1ccccc1)C(=O)CCN1C(=O)c2cccc([N+](=O)[O-])c2C1=O | inactive: 6.13% |  |
